# Assay results: the BET-seq Pho4 binding data (Le et al. 2018)
# This is one part of the list. Values were computed here from the reads of four pooled replicates and scatter widely.
# Biological target: T1, Pho4 (S. cerevisiae) (UniProt P07270)
# T1 sequence: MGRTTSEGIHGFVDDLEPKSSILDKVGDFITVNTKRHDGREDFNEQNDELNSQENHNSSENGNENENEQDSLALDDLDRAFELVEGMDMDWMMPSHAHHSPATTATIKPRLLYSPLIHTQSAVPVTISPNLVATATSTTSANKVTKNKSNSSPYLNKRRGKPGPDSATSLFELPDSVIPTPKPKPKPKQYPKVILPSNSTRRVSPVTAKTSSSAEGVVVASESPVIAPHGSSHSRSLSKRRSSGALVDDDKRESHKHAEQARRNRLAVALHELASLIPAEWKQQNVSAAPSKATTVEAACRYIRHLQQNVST
# Assay: relative binding free energy (BET-seq); higher = weaker binding
# Details: reference: library average
row,Sequence,relative binding free energy
1,GTGGTCACGTGTTGTA,0.02 kcal/mol
2,ATGATCACGTGGGATT,0.12 kcal/mol
3,TTTTTCACGTGCGTAA,0.19 kcal/mol
4,GGTCACACGTGGATTT,0.16 kcal/mol
5,GTATGCACGTGTTGGG,0.06 kcal/mol
6,TGTCGCACGTGGGGCA,-0.2 kcal/mol
7,CTGTGCACGTGCAGTG,-0.14 kcal/mol
8,TTTAACACGTGTTTCG,-0.07 kcal/mol
9,TTTTGCACGTGGGAAG,-0.1 kcal/mol
10,ATGTTCACGTGGTTAA,0.2 kcal/mol
11,TGTCACACGTGTGTCG,0.29 kcal/mol
12,ATTTACACGTGCGGTC,0.26 kcal/mol
13,AAGGCCACGTGTTGAG,0.06 kcal/mol
14,GGAGGCACGTGGTGAG,-0.1 kcal/mol
15,ACATACACGTGGGTGG,0 kcal/mol
16,CAGTGCACGTGGTTGT,-0.05 kcal/mol
17,CATGTCACGTGGGGAT,-0.13 kcal/mol
18,CGGCGCACGTGGGGTG,-0.25 kcal/mol
19,TGTCCCACGTGTGAGT,0.17 kcal/mol
20,TGTTGCACGTGTATAG,-0.02 kcal/mol
21,ATTGTCACGTGTTTCA,-0.07 kcal/mol
22,GGGTTCACGTGGTATA,0.28 kcal/mol
23,AGTGACACGTGGGGAA,-0.08 kcal/mol
24,TTATGCACGTGCTGAG,-0.06 kcal/mol
25,AGTGCCACGTGAGGGA,0.13 kcal/mol
26,ATTGTCACGTGCGGTG,0.04 kcal/mol

row,Sequence,relative binding free energy
1,TTTGCCACGTGAGGAT,0.08 kcal/mol
2,AGCATCACGTGGGCGG,-0.03 kcal/mol
3,TTTGCCACGTGGGCGG,-0.3 kcal/mol
4,GATGACACGTGTTATA,0.14 kcal/mol
5,ATTTTCACGTGTTGTA,0.3 kcal/mol
6,AGGCACACGTGTAGGG,0.07 kcal/mol
7,ATGGGCACGTGGTTCT,-0.16 kcal/mol
8,AGAGTCACGTGAGATA,0.31 kcal/mol
9,GGGCTCACGTGGGAGT,0.14 kcal/mol
10,CGGAGCACGTGATTGG,0 kcal/mol
11,AGCGACACGTGATGGT,0.15 kcal/mol
12,AGGCGCACGTGGGGGT,-0.18 kcal/mol
13,GTATTCACGTGGTGGA,0.21 kcal/mol
14,TGCACCACGTGGGGTA,-0.2 kcal/mol
15,CGGTGCACGTGGAGGC,-0.12 kcal/mol
16,CGACGCACGTGGGTGA,-0.08 kcal/mol
17,AGCATCACGTGGTAGG,0.03 kcal/mol
18,AGTGTCACGTGCGCAG,-0.2 kcal/mol
19,GGAGACACGTGTATGC,0.28 kcal/mol
20,CGTGTCACGTGGCGTT,-0.07 kcal/mol
21,TTGTTCACGTGAATAG,0.5 kcal/mol
22,TTGGACACGTGTGCAT,0.15 kcal/mol
23,GTAAGCACGTGTAGGG,-0.06 kcal/mol
24,GAATTCACGTGTTTAA,0.39 kcal/mol
25,TGTGACACGTGTTGGC,0.05 kcal/mol
26,GTGTGCACGTGTGGGA,0.08 kcal/mol

row,Sequence,relative binding free energy
1,GTCGTCACGTGGTCAA,0.19 kcal/mol
2,ATTCACACGTGATTTT,0.29 kcal/mol
3,TTCTTCACGTGGATTT,0.32 kcal/mol
4,CGTTTCACGTGTTGTC,0.2 kcal/mol
5,TGGTACACGTGTGTTT,0.22 kcal/mol
6,TGAGCCACGTGTAGTT,-0.07 kcal/mol
7,AGTATCACGTGAAGTA,0.49 kcal/mol
8,GGGTGCACGTGTTAGG,0.07 kcal/mol
9,GGATTCACGTGTGTCT,0.35 kcal/mol
10,CTGGACACGTGTGCGT,-0.1 kcal/mol
11,GTGTACACGTGTGGGT,0.1 kcal/mol
12,CGGAGCACGTGTAAGG,0.1 kcal/mol
13,GCAGGCACGTGAGGTG,0.12 kcal/mol
14,AATTGCACGTGATAGT,0.1 kcal/mol
15,AGTGTCACGTGGGGGC,-0.16 kcal/mol
16,GTGTGCACGTGACGTA,0.04 kcal/mol
17,TAAGTCACGTGAGAGA,0.19 kcal/mol
18,ATTAGCACGTGGGCGT,-0.16 kcal/mol
19,TTTCGCACGTGAATGT,0.24 kcal/mol
20,GTGGGCACGTGAAAGC,0.25 kcal/mol
21,TGATACACGTGGGTAA,-0.17 kcal/mol
22,ATGTACACGTGGGTGT,-0.07 kcal/mol
23,GTTTTCACGTGTCTGT,0.38 kcal/mol
24,TGTGCCACGTGGTTTC,-0.08 kcal/mol
25,CGTATCACGTGGTGGC,0.1 kcal/mol
26,GGGAGCACGTGTCGGA,-0.1 kcal/mol

row,Sequence,relative binding free energy
1,TTTCGCACGTGGGAAT,-0.07 kcal/mol
2,GTAAGCACGTGGCGTT,-0.33 kcal/mol
3,TGCTGCACGTGATTTT,-0.02 kcal/mol
4,AAGAACACGTGGCGTT,0.14 kcal/mol
5,ACTGTCACGTGGGGGG,-0.07 kcal/mol
6,GGTCTCACGTGATAGA,0.46 kcal/mol
7,TAGTTCACGTGATGTC,0.37 kcal/mol
8,GCAGGCACGTGGGGGC,-0.26 kcal/mol
9,GTATGCACGTGCAGGA,-0.11 kcal/mol
10,TAATGCACGTGACGTG,0.15 kcal/mol
11,GGTCGCACGTGTAGGG,-0.09 kcal/mol
12,AGAAGCACGTGGTGGT,-0.11 kcal/mol
13,GGTAACACGTGGTTCG,-0.03 kcal/mol
14,AAGTTCACGTGGGGTG,0.17 kcal/mol
15,TACGTCACGTGGGTCG,-0.07 kcal/mol
16,AATGGCACGTGAAATG,0.14 kcal/mol
17,TATTGCACGTGTCTTT,-0.03 kcal/mol
18,TGTAACACGTGTGGCC,0.07 kcal/mol
19,TGGGTCACGTGAGTGG,0.27 kcal/mol
20,CGGAGCACGTGGTGTG,-0.08 kcal/mol
21,TGCGTCACGTGAGATG,0.22 kcal/mol
22,TATATCACGTGCCGTG,0.11 kcal/mol
23,GTTAACACGTGCTGTT,-0.22 kcal/mol
24,GCATACACGTGTTTGT,0.13 kcal/mol
25,TTAGGCACGTGGGCGA,-0.21 kcal/mol
26,CTTGGCACGTGGACGG,-0.11 kcal/mol

row,Sequence,relative binding free energy
1,TGCGGCACGTGGTGTC,-0.14 kcal/mol
2,GGACACACGTGTTTGG,0.07 kcal/mol
3,GGGTACACGTGGCTTG,-0.02 kcal/mol
4,GGATTCACGTGGTGAG,0.35 kcal/mol
5,ATGTTCACGTGGGTTA,0.21 kcal/mol
6,TTTAGCACGTGAAGAT,0.12 kcal/mol
7,ATCGCCACGTGGTGGG,-0.27 kcal/mol
8,AGTTTCACGTGTAGTG,0.29 kcal/mol
9,CGTGTCACGTGAGCGT,0.11 kcal/mol
10,GAGTGCACGTGTGGAA,0.16 kcal/mol
11,TGTTACACGTGTTGGG,0.14 kcal/mol
12,TTTATCACGTGTGCTC,0.3 kcal/mol
13,ATGGGCACGTGGTTTA,-0.09 kcal/mol
14,GGGGTCACGTGAGCTG,0.33 kcal/mol
15,TTGGCCACGTGCTAGG,-0.14 kcal/mol
16,GGTTACACGTGTAATG,0.12 kcal/mol
17,TATTGCACGTGTGGGA,0.08 kcal/mol
18,TTGGTCACGTGACGAA,0.27 kcal/mol
19,CTTCTCACGTGTATTG,0.2 kcal/mol
20,TTTAGCACGTGTTATG,-0.11 kcal/mol
21,CATAGCACGTGTAGGG,-0.13 kcal/mol
22,GTAGGCACGTGGCTAT,-0.04 kcal/mol
23,AGAGGCACGTGGAATA,-0.04 kcal/mol
24,GTATTCACGTGTGTCG,0.11 kcal/mol
25,ACTTGCACGTGGGAGG,-0.16 kcal/mol
26,TTGTGCACGTGGATAT,-0.01 kcal/mol

row,Sequence,relative binding free energy
1,GAGAGCACGTGAGCGG,0.07 kcal/mol
2,TTGGACACGTGGTGGG,0.02 kcal/mol
3,GTGGACACGTGTAAAG,0.28 kcal/mol
4,GTGTACACGTGGTAGA,-0.11 kcal/mol
5,TTAATCACGTGCAAGT,0.23 kcal/mol
6,GCGGACACGTGGGTTG,-0.2 kcal/mol
7,GGGCGCACGTGCAGTT,0 kcal/mol
8,GGGTCCACGTGAAGGA,0.33 kcal/mol
9,AAATTCACGTGGTGCG,0.22 kcal/mol
10,GGTCTCACGTGGGCAG,0.12 kcal/mol
11,TAGCGCACGTGTTGGT,-0.05 kcal/mol
12,TGGTGCACGTGACAGT,0.06 kcal/mol
13,CGGTGCACGTGGCGCT,0 kcal/mol
14,GCTAGCACGTGTTAGG,0.08 kcal/mol
15,TGCATCACGTGTGTGT,0.14 kcal/mol
16,TAGTTCACGTGGAGTA,0.33 kcal/mol
17,TAGTTCACGTGTGTTA,0.35 kcal/mol
18,AGGCGCACGTGGGGGG,-0.26 kcal/mol
19,TGCTTCACGTGTTGTT,0.35 kcal/mol
20,TTGGACACGTGGATAG,0.1 kcal/mol
21,ATTTCCACGTGTAGTG,-0.09 kcal/mol
22,GTAGCCACGTGGGCGG,-0.19 kcal/mol
23,GGAGGCACGTGTGCGG,-0.08 kcal/mol
24,TGGTACACGTGGGACA,-0.1 kcal/mol
25,GAGTACACGTGCTTTG,0.19 kcal/mol
26,GGCTGCACGTGTTAAA,0.24 kcal/mol

row,Sequence,relative binding free energy
1,ACTGTCACGTGCTGTT,0.15 kcal/mol
2,TGTAGCACGTGGTCGG,-0.19 kcal/mol
3,TCGGGCACGTGGTTTG,-0.1 kcal/mol
4,CGGTGCACGTGTATGT,0.03 kcal/mol
5,TTGTGCACGTGTAGAC,0.06 kcal/mol
6,TAAGTCACGTGTTGAC,0.24 kcal/mol
7,GTAGTCACGTGTGTGC,0.22 kcal/mol
8,GATAACACGTGAAGGT,0.33 kcal/mol
9,GTCTGCACGTGCAGGG,-0.13 kcal/mol
10,GTTTCCACGTGGAGGA,0.29 kcal/mol
11,ATGTTCACGTGAGGGG,0.31 kcal/mol
12,TGTGACACGTGGTATT,-0.02 kcal/mol
13,TGGTCCACGTGTGGTG,0.08 kcal/mol
14,TATCGCACGTGCTTTT,-0.04 kcal/mol
15,CGTAACACGTGGATGG,0.06 kcal/mol
16,TACATCACGTGTTTTG,0.13 kcal/mol
17,TCAGGCACGTGAGTGG,0.08 kcal/mol
18,TTTTGCACGTGTTAAT,0.07 kcal/mol
19,GAGAGCACGTGTGCGT,-0.06 kcal/mol
20,TGTTACACGTGAGAAT,0.44 kcal/mol
21,CGTGGCACGTGCGGTG,-0.17 kcal/mol
22,TATGTCACGTGTGTAG,0.16 kcal/mol
23,AGGCACACGTGAAGTT,0.22 kcal/mol
24,ATTTTCACGTGGGTGC,0.28 kcal/mol
25,TTGCTCACGTGGGGAA,0.08 kcal/mol
26,ATTGTCACGTGTTCTG,0.16 kcal/mol

row,Sequence,relative binding free energy
1,ATCGTCACGTGAATGT,0.18 kcal/mol
2,AATGGCACGTGGTTGA,-0.18 kcal/mol
3,ATAAGCACGTGTATTT,-0.07 kcal/mol
4,GATTACACGTGAGGTC,0.45 kcal/mol
5,GAGTGCACGTGGGGCA,-0.04 kcal/mol
6,GATAGCACGTGGGGGT,-0.13 kcal/mol
7,GTTGGCACGTGGATAG,-0.1 kcal/mol
8,ATGAACACGTGAAGGG,0.05 kcal/mol
9,AAGTACACGTGTAGTT,-0.02 kcal/mol
10,GGATGCACGTGATAAT,0.12 kcal/mol
11,AGGGACACGTGGGGAA,-0.14 kcal/mol
12,CGCTACACGTGTTGTG,0.21 kcal/mol
13,AGCTGCACGTGGTGTG,-0.18 kcal/mol
14,ATGGTCACGTGGCGTT,0.2 kcal/mol
15,ACTGGCACGTGGAGGC,-0.02 kcal/mol
16,AGTGTCACGTGGGGCA,-0.06 kcal/mol
17,TGTGACACGTGGGCAT,-0.04 kcal/mol
18,AATTACACGTGTTTTT,0.06 kcal/mol
19,GGTCCCACGTGGGGGG,-0.24 kcal/mol
20,TAGGGCACGTGAGGTT,0.05 kcal/mol
21,ACTGTCACGTGGCGTA,0.08 kcal/mol
22,GTTCACACGTGGGTTA,-0.07 kcal/mol
23,TATCACACGTGGTTAG,0.07 kcal/mol
24,GGAGGCACGTGGTGCT,-0.17 kcal/mol
25,TTGTACACGTGGCTAG,0 kcal/mol
26,AGGATCACGTGTCGAG,0.16 kcal/mol

row,Sequence,relative binding free energy
1,ATAAACACGTGGTAGA,0.07 kcal/mol
2,CGTACCACGTGTTGTG,-0.1 kcal/mol
3,ATGCTCACGTGCGTGG,0.01 kcal/mol
4,AGGATCACGTGGTTAA,-0.04 kcal/mol
5,TTTTTCACGTGCCGGT,0.22 kcal/mol
6,TAGGACACGTGTGGGT,0.03 kcal/mol
7,TTTGACACGTGGACTG,0.14 kcal/mol
8,GGCTTCACGTGGCAGT,0.33 kcal/mol
9,GCGTTCACGTGCTGTT,0.22 kcal/mol
10,TGGAACACGTGGGCAG,-0.05 kcal/mol
11,TTGCTCACGTGATGTG,0.29 kcal/mol
12,AGTTGCACGTGGATGG,0.07 kcal/mol
13,TTGGCCACGTGGCGTG,-0.13 kcal/mol
14,TTATCCACGTGATTGG,0.12 kcal/mol
15,TGATCCACGTGGGTGG,-0.12 kcal/mol
16,TGAGTCACGTGTATGA,0.05 kcal/mol
17,AAATTCACGTGTGTCT,0.25 kcal/mol
18,GGCGTCACGTGTGGTA,0.11 kcal/mol
19,TGGTGCACGTGTTGGG,-0.03 kcal/mol
20,TGAGGCACGTGATCGG,0 kcal/mol
21,ATTTGCACGTGCATAT,-0.12 kcal/mol
22,GAAAGCACGTGTCGTG,0.08 kcal/mol
